# According to the supplement of paper PMC8728848:
# This is one part of the list.
# B1: EEA (Euonymus europaeus) (protein)
# chain: MASTIIATGPTYRVYCRAAPNYNMIVGKGVAFLAPIDETNELQYWYKDDTYSYIKDEAGLPAFSLVNKATGLTLKHSNHHPVPVKLVTYNPNVVDESVLWSQADDRGDGYSAIRSLTNPASHLEAAPLNDWSYNGAIIMGGVWIDAYNQQWKIEPHTG
# Columns and labels:
# Experiment in all cases: glycan array binding signal (z-score within array); higher = stronger binding
# Settings in all cases: glycan notation: IUPAC condensed, linker removed
# [1] = target: Fuc(a1-2)[GalNAc(a1-3)]Gal(b1-3)GalNAc(a1-3)[Fuc(a1-2)]Gal(b1-4)GlcNAc
# Outline: (§1)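 Glycan array binding is given as a within-array Z-score, which can be read as non-binding when negative. The arrays, 3228 of them, came from the Consortium for Functional Glycomics database and were retained only where the protein sequence was available. Z-scores were averaged across arrays of the same protein sequence at different concentrations or buffers and across linkers.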
# [2] = target: Fuc(a1-2)[GalNAc(a1-3)]Gal(b1-3)GalNAc(b1-3)Gal(a1-4)Gal(b1-4)Glc
# Outline: as §1
# [3] = target: Fuc(a1-2)[GalNAc(a1-3)]Gal(b1-3)GlcNAc
# Outline: as §1
# [4] = target: Fuc(a1-2)[GalNAc(a1-3)]Gal(b1-3)GlcNAc(b1-2)Man(a1-3)[Fuc(a1-2)[GalNAc(a1-3)]Gal(b1-3)GlcNAc(b1-2)Man(a1-6)]Man(b1-4)GlcNAc(b1-4)GlcNAc
# Outline: as §1
# [5] = target: Fuc(a1-2)[GalNAc(a1-3)]Gal(b1-3)GlcNAc(b1-2)Man(a1-3)[Fuc(a1-2)[GalNAc(a1-3)]Gal(b1-3)GlcNAc(b1-2)Man(a1-6)]Man(b1-4)GlcNAc(b1-4)[Fuc(a1-6)]GlcNAc
# Outline: as §1
# [6] = target: Fuc(a1-2)[GalNAc(a1-3)]Gal(b1-3)GlcNAc(b1-3)GalNAc
# Outline: as §1
# [7] = target: Fuc(a1-2)[GalNAc(a1-3)]Gal(b1-3)GlcNAc(b1-6)GalNAc
# Outline: as §1
# [8] = target: Fuc(a1-2)[GalNAc(a1-3)]Gal(b1-4)Glc
# Outline: as §1
# [9] = target: Fuc(a1-2)[GalNAc(a1-3)]Gal(b1-4)GlcNAc
# Outline: as §1
# [10] = target: Fuc(a1-2)[GalNAc(a1-3)]Gal(b1-4)GlcNAc(b1-2)Man
# Outline: as §1
# [11] = target: Fuc(a1-2)[GalNAc(a1-3)]Gal(b1-4)GlcNAc(b1-2)Man(a1-3)[Fuc(a1-2)[GalNAc(a1-3)]Gal(b1-4)GlcNAc(b1-2)Man(a1-6)]Man(b1-4)GlcNAc(b1-4)GlcNAc
# Outline: as §1
# [12] = target: Fuc(a1-2)[GalNAc(a1-3)]Gal(b1-4)GlcNAc(b1-2)Man(a1-3)[Fuc(a1-2)[GalNAc(a1-3)]Gal(b1-4)GlcNAc(b1-2)Man(a1-6)]Man(b1-4)GlcNAc(b1-4)[Fuc(a1-6)]GlcNAc
# Outline: as §1
# [13] = target: Fuc(a1-2)[GalNAc(a1-3)]Gal(b1-4)GlcNAc(b1-3)Gal(b1-4)GlcNAc
# Outline: as §1
# [14] = target: Fuc(a1-2)[GalNAc(a1-3)]Gal(b1-4)GlcNAc(b1-3)Gal(b1-4)GlcNAc(b1-3)Gal(b1-4)GlcNAc
# Outline: as §1
# [15] = target: Fuc(a1-2)[GalNAc(a1-3)]Gal(b1-4)GlcNAc(b1-3)GalNAc
# Outline: as §1
# [16] = target: Fuc(a1-2)[GalNAc(a1-3)]Gal(b1-4)GlcNAc(b1-3)[Fuc(a1-2)[GalNAc(a1-3)]Gal(b1-4)GlcNAc(b1-6)]GalNAc
# Outline: as §1
# [17] = target: Fuc(a1-2)[GalNAc(a1-3)]Gal(b1-4)GlcNAc(b1-6)GalNAc
# Outline: as §1
# [18] = target: Fuc(a1-2)[GalNAc(a1-3)]Gal(b1-4)[Fuc(a1-3)]GlcNAc
# Outline: as §1
# [19] = target: Fuc(a1-2)[GalNAc(a1-3)]Gal(b1-4)[Fuc(a1-3)]GlcNAc(b1-3)GalNAc
# Outline: as §1
# [20] = target: Fuc(a1-2)[GalNAc(a1-4)]Gal(b1-4)GlcNAc
# Outline: as §1
# [21] = target: Fuc(a1-2)[GalNAc(b1-3)]Gal
# Outline: as §1
# Fuc(a1-3)GlcNAc = target: Fuc(a1-3)GlcNAc
# Outline: as §1
# [22] = target: Fuc(a1-3)[Gal(b1-4)]Glc6S
# Outline: as §1
# [23] = target: Fuc(a1-3)[Gal(b1-4)]GlcNAc
# Outline: as §1
# [24] = target: Fuc(a1-3)[Gal(b1-4)]GlcNAc(b1-2)Man
# Outline: as §1
# [25] = target: Fuc(a1-3)[Gal(b1-4)]GlcNAc(b1-2)Man(a1-3)[Fuc(a1-3)[Gal(b1-4)]GlcNAc(b1-2)Man(a1-6)]Man(b1-4)GlcNAc(b1-4)GlcNAc
# Outline: as §1
# [26] = target: Fuc(a1-3)[Gal(b1-4)]GlcNAc(b1-2)Man(a1-3)[Fuc(a1-3)[Gal(b1-4)]GlcNAc(b1-2)Man(a1-6)]Man(b1-4)GlcNAc(b1-4)[Fuc(a1-6)]GlcNAc
# Outline: as §1
# [27] = target: Fuc(a1-3)[Gal(b1-4)]GlcNAc(b1-2)Man(a1-6)[Gal(b1-4)GlcNAc(b1-2)Man(a1-3)]Man(b1-4)GlcNAc(b1-4)GlcNAc
# Outline: as §1
# [28] = target: Fuc(a1-3)[Gal(b1-4)]GlcNAc(b1-3)Gal(b1-3)[Fuc(a1-4)]GlcNAc
# Outline: as §1
# [29] = target: Fuc(a1-3)[Gal(b1-4)]GlcNAc(b1-3)Gal(b1-4)[Fuc(a1-3)]GlcNAc
# Outline: as §1
# [30] = target: Fuc(a1-3)[Gal(b1-4)]GlcNAc(b1-3)Gal(b1-4)[Fuc(a1-3)]GlcNAc(b1-3)Gal(b1-4)[Fuc(a1-3)]GlcNAc
# Outline: as §1
# [31] = target: Fuc(a1-3)[Gal(b1-4)]GlcNAc(b1-3)GalNAc
# Outline: as §1
# [32] = target: Fuc(a1-3)[Gal(b1-4)]GlcNAc(b1-4)Gal(b1-4)[Fuc(a1-3)]GlcNAc
# Outline: as §1
# [33] = target: Fuc(a1-3)[Gal(b1-4)]GlcNAc(b1-4)Gal(b1-4)[Fuc(a1-3)]GlcNAc(b1-4)Gal(b1-4)[Fuc(a1-3)]GlcNAc
# Outline: as §1
# [34] = target: Fuc(a1-3)[Gal(b1-4)]GlcNAc(b1-6)GalNAc
# Outline: as §1
# [35] = target: Fuc(a1-3)[Gal(b1-4)]GlcNAc(b1-6)[Gal(b1-3)GlcNAc(b1-3)]Gal(b1-4)Glc
# Outline: as §1
# [36] = target: Fuc(a1-3)[Gal(b1-4)]GlcNAc6S
# Outline: as §1
# [37] = target: Fuc(a1-3)[Gal3S(b1-4)]Glc
# Outline: as §1
# [38] = target: Fuc(a1-3)[Gal3S(b1-4)]Glc6S
# Outline: as §1
# [39] = target: Fuc(a1-3)[Gal3S(b1-4)]GlcNAc
# Outline: as §1
# [40] = target: Fuc(a1-3)[Gal3S(b1-4)]GlcNAc6S
# Outline: as §1
# [41] = target: Fuc(a1-3)[GalNAc(b1-4)]Gal(b1-4)GlcNAc
# Outline: as §1
# [42] = target: Fuc(a1-3)[GalNAc(b1-4)]GlcNAc
# Outline: as §1
# [43] = target: Fuc(a1-3)[GalNAc(b1-4)]GlcNAc6S
# Outline: as §1
# Fuc(a1-4)GlcNAc = target: Fuc(a1-4)GlcNAc
# Outline: as §1
binder,measurement,setting,value
B1,glycan array binding signal (z-score),[1],-0.159
same,glycan array binding signal (z-score),[2],-0.264
same,glycan array binding signal (z-score),[3],0.824
same,glycan array binding signal (z-score),[4],-0.194
same,glycan array binding signal (z-score),[5],-0.189
same,glycan array binding signal (z-score),[6],-0.142
same,glycan array binding signal (z-score),[7],-0.223
same,glycan array binding signal (z-score),[8],-0.197
same,glycan array binding signal (z-score),[9],-0.089
same,glycan array binding signal (z-score),[10],-0.224
same,glycan array binding signal (z-score),[11],-0.163
same,glycan array binding signal (z-score),[12],-0.273
same,glycan array binding signal (z-score),[13],-0.249
same,glycan array binding signal (z-score),[14],0.128
same,glycan array binding signal (z-score),[15],-0.194
same,glycan array binding signal (z-score),[16],0.539
same,glycan array binding signal (z-score),[17],-0.234
same,glycan array binding signal (z-score),[18],-0.095
same,glycan array binding signal (z-score),[19],-0.014
same,glycan array binding signal (z-score),[20],-0.126
same,glycan array binding signal (z-score),[21],-0.256
same,glycan array binding signal (z-score),Fuc(a1-3)GlcNAc,-0.271
same,glycan array binding signal (z-score),[22],0.013
same,glycan array binding signal (z-score),[23],-0.168
same,glycan array binding signal (z-score),[24],-0.222
same,glycan array binding signal (z-score),[25],-0.21
same,glycan array binding signal (z-score),[26],-0.117
same,glycan array binding signal (z-score),[27],-0.223
same,glycan array binding signal (z-score),[28],-0.169
same,glycan array binding signal (z-score),[29],-0.206
same,glycan array binding signal (z-score),[30],-0.252
same,glycan array binding signal (z-score),[31],-0.12
same,glycan array binding signal (z-score),[32],-0.356
same,glycan array binding signal (z-score),[33],-0.296
same,glycan array binding signal (z-score),[34],-0.124
same,glycan array binding signal (z-score),[35],-0.242
same,glycan array binding signal (z-score),[36],-0.151
same,glycan array binding signal (z-score),[37],-0.163
same,glycan array binding signal (z-score),[38],-0.263
same,glycan array binding signal (z-score),[39],-0.14
same,glycan array binding signal (z-score),[40],-0.209
same,glycan array binding signal (z-score),[41],-0.054
same,glycan array binding signal (z-score),[42],-0.088
same,glycan array binding signal (z-score),[43],-0.254
same,glycan array binding signal (z-score),Fuc(a1-4)GlcNAc,-0.292
